Data as given in the RNAGym collection of RNA variant scans (doi:10.7554/elife.90254).
Read counts are not given, so values of variants with three or more changes are uncertain.

B1: LINE1-mini (parent)
chain: GGCAGAGCUCAACACAGCGUGGCAAAGUGGCUGUGGCUAGACUGCC

Variants of: B1
Test: self-cleavage, relative activity (ratio to wild type); higher = more cleavage; in vitro, sequencing; the parent is a self-cleaving ribozyme

Variant	self-cleavage
U9A U20C C37G	0.02
C8U C18A G33C G44A	0.08
C8U C23U A24U	0.22
U9A U20A G35C	0.17
U9A A26G U32A	0.13
C8U U28G G40C	0.05
C8U U28G G40A	0.15
U9A A14C C15A C37A	0.06
U9A C10U G27U	0.07
C8U U20C C31A	0.08
U9A C13A G21C G22U G33C G36A	0.02
C8U G27C U28C C31G C37U	0.18
U9A A14U G17C G30U G36A	0.07
C8G G29A G30C U34C G36C C42A C45A	0.01
U9A G21A G33A C46U	0.14
C8U A26U G29U G35U	0.15
C8G U20A U43A	0.02
U9A C15A G29U G44A C45A	0.05
U9A C15U G21C G29U U43G	0.05
C8U C15G C23A	0.17
U9A C10U A16C C18A A41G	0.03

Variant	self-cleavage
C8G G33U G40A	0.03
C8U A39U C42A G44A	0.01
C8U G27U C31G G35U	0.01
U9A G19U C45U	0.09
C8U A16G C23A	0.1
C8U G17C U32C	0.13
U9C A12U G44U	0.01
C8U C23A U32A	0.08
C8U A11U C15U G33A C37G U38C G40A	0.01
U9A A12G G33U	0.01
U9A A26G C46U	0.08
C8U U9G C31A	0.03
C8U U9G A14C A16U C37G	0.03
C8U A16G G40A	0.16
C8U C42A U43G	0.14
U9A C10G G27A G29U G30U	0.03
C8U G22U G27U C37G C46G	0.05
C8U A14G G27A	0.32
U9C A12C A16U	0.01
C8U A11U C45A	0.02
U9C A12C C15G G27C A41U	0

Variant	self-cleavage
U9A C42U U43C	0.25
U9A U32G C42U	0.48
C8U G17U C23G A41G	0.01
C8U C13A G29U	0.01
U9A U28A G29C G36U	0.06
U9A U20C G29U	0.02
C8U G22A G40A	0.34
C8U C13U G17C A39C	0.7
U9A G22A G30U G33U	0.06
C8U G19U U20G G29C	0.12
U9A G27A G29C G35U	0.03
U9A U28G C42A	0.19
U9A A24G G33U	0.24
U9A C10A G17U C18G A41G G44C	0.02
U9A C23U G29U C45A	0.29
U9A A16C U28A G36U C46U	0.03
U9A U20A G21A A26U A39G G44C	0.02
U9A A26C G27A G44U	0.11
U9A A11C A39U	0.01
C8U A25G U28C	0.09
C8U G27A U32G C46U	0.15

Variant	self-cleavage
C8U U20A C23U	0.06
C8U U9A A26C	0.15
C8U C13A A24U	0.03
C8G G30U G35U A39G	0
U9A G29A C42A C46U	0.2
C8G G27C G30A C31A	0.04
C8U U9G C23A A24U A41G	0.21
C8U U9C A16G G44C	0.03
C8U A11C G44A	0.02
C8U G35U U43A	0.21
C8U C10A C31G	0.02
C8U C13U C18A	0.06
U9A A39C C45U	0.13
C8U C10G C46A	0.02
C8U C10A G17U A25G	0.03
C8U A12U A41U	0.46
U9A A11G U28A U43C C45G	0
U9A G17A C31U G33A	0.02
C8G U9G G22A A24G U32A	0.01
U9A C10U G35C	0.07
